In ChEMBL document CHEMBL4888484, “Replenishing the malaria drug discovery pipeline: Screening and hit evaluation of the MMV Hit Generation Library 1 (HGL1) against asexual blood stage Plasmodium falciparum ,using a nano luciferase reporter read-out” (2022):
Several values for one entry are separate records, joined by “and”; a condition that tells them apart may be missing. Equal values may be shown once. The campaign covered roughly 150,000 compounds. About 540 (0.36%) showed an effect of 50% or more. The list shows a part of the results.

Tested on: Plasmodium falciparum
Experiment: Primary screen in NF54 nanoGlo assay, in single point, at 2uM, 72h; a lower Z score goes with more inhibition
Type: functional, Erythrocyte
Conditions: timepoint 72 hour

Row | SMILES | % Inhibition [%] | Z score | % Inhibition (2 µM)
1 | CC(=Cc1ccccc1)CN1CC[C@@](F)(CO)C1 | 1 | -0.15 | –
2 | CCNC(=O)[C@@H]1CC[C@](C)(C(=O)Nc2c(CC)c(CC)nn2C)C1(C)C | -13 | 1.2 | –
3 | COc1ccc(CNC(=O)c2ccc3c(c2)N(C)C(=O)[C@@H]2CCCCN32)cc1OC | -7 | 0.92 | –
4 | O=C(NC[C@@]1(c2ccccc2)CCCO1)c1cc2n(n1)CCCC2=O | -13 | 2.5 | –
5 | C[C@H]1CCN(c2ncc(Cl)cc2Cl)CCS1(=O)=O | 33 | -4.73 | –
6 | CCCc1n[nH]cc1C(=O)N1CC[C@@]2(CCCN(CC3CC3)C2=O)C1 | 1 | -0.23 | –
7 | CC[C@](C)(N)c1nc(C(C)(C)C)cc(=O)[nH]1 | -6 | 1.19 | –
8 | Cc1nccn1-c1cc(N2CCCC2)nc2ccnn12 | -18 | 2.07 | –
9 | Cc1cc(N(C)CCOc2ccccc2)n2ncnc2n1 | 8 | -1.14 | –
10 | Cc1nn(CCO)c(C)c1CN1CCC(=O)N(CCC2CCCCC2)CC1 | 6 | -1.08 | –
11 | O=C(NCCn1ccc(-c2ccsc2)n1)c1ccccc1Cl | 24 | -3.21 | –
12 | CN[C@H]1CCCN(C(=O)c2cn(C)nc2-c2ccc(F)cc2F)C1 | -7 | 0.95 | –
13 | CC(C)C[C@@H](CO)NC(=O)CC1(CN2Cc3ccccc3C2=O)CCCCC1 | -19 | 2.39 | –
14 | O=C(Nc1c(C(=O)N2CCC(N3CCCCC3)CC2)oc2ccccc12)C1CCCCC1 | -5 | 0.55 | –
15 | CC(C)c1nn2ccccc2c1[C@@H](O)C(C)C | 0 | 0 | –
16 | NC(=O)Cc1ccc(NS(=O)(=O)c2cnc3ccc(F)cc3c2)cc1 | -5 | 0.49 | –
17 | CCS(=O)(=O)N1CCN(Cc2nnc3n2CCCCC3)CC1 | -6 | 1.06 | –
18 | C[C@@H](c1ccc(F)c(F)c1)N(C)Cc1nc(-c2cccs2)no1 | -6 | 0.85 | –
19 | CC(C)c1ccc(C(=O)NC2(CN3CCOCC3)CCCC2)c(=O)n1C | -4 | 0.84 | –
20 | Cc1cc[n+](CC2OCc3ccccc3CO2)cc1 | – | – | 0% and -12%
21 | CS(=O)(=O)c1ccc(CNC(=O)N2CC(=O)N(C3CC3)C2)cc1Cl | 14 | -1.84 | –
22 | COCCN1C(=O)CC(CC(=O)N2CCC(c3ccccc3F)C2)(c2ccccc2OC)C1=O (configuration not stated) | 4 | -0.59 | –
23 | O=c1c(N2CCCCCC2)nccn1C1CC1 | -7 | 1.14 | –
24 | O=C(N[C@@H]1CC[C@H]2CCOc3ccccc3C(=O)N3CCN(Cc4ccncc4)C[C@H]3C(=O)NC[C@H]1O2)C1CCOCC1 | 14 | -1.58 | –
